{
  "source": "PubChem BioAssay AID2546",
  "about": "(National Center for Advancing Translational Sciences (NCATS), 2010)",
  "note": "About 11,000 (3.5%) of roughly 310,000 compounds were called active. Calls follow the shape of the dose curve; as a rule, active = well fitted inhibition curve with a large enough effect; inconclusive = small, poorly fitted or top-dose-only effect, or effect the other way; inactive = flat fitted curve, though single readings scatter. Inconclusive means that the source gave no clear call. No potency is given beside an inconclusive call; the fits are too rough. Potency is read from the fitted curve at half-maximal effect; tags tell the direction and shape of the fitted curve.",
  "data": [
    {"assay": "VP16 counterscreen qHTS for inhibitors of ROR gamma transcriptional activity;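 also: Gal4-VP16 expression switched on by copper sulfate through the metallothionein promoter; nearly all actives have a fitted effect of over 50% in size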", "conditions": "Drosophila S2 Gal4-VP16 UAS-luciferase, luminescence, 20 h; series mostly up to 53.6 µM", "text": "NIH Molecular Libraries Probe Production Network [MLPCN]\nNIH Chemical Genomics Center [NCGC]\nAssay Provider: Dan Littman, New York University\nThe retinoic acid-related orphan receptor (ROR) gamma is a transcription factor that has a central role in the differentiation of Th17 cells, a subset of T helper cells that secrete the inflammatory cytokines IL-17, IL-17F, and IL-22. Th17 cells have been implicated in graft versus host disease, autoimmune disease and asthma. ROR gamma is induced in naive T helper cells in the presence of TGF-beta combined with IL-6, IL-21, or IL-23, and thereafter directs the expression of the Th17 lineage cytokines. To identify nonspecific inhibitors, a Drosophila Schneider cell line was stably transfected with two vectors: a gene expressing a fusion of the Gal4 DNA binding domain and VP16 transactivation domain under the control of the metallothionine promoter and a Photinus luciferase reporter regulated by the Gal4 binding site enhancer, UAS. […] Small molecule inhibitors that inhibit components common to the RORgt and VP16 assays, such as the Gal4 DNA binding domain or the UAS luciferase reporter, will be active in both assays and thus scored as nonspecific.\nFor screening, 600 cells in 4 uL/well were dispensed into white solid 1536-well plates (Grenier) using a solenoid-based dispenser. Following transfer of 23 nL compound or DMSO vehicle by a pin tool, the plates were incubated 1 hr at ambient temperature, and 1 uL/well copper sulfate (700 uM final concentration) was added. The plates were centrifuged 15 s at 1000 RPM and incubated 20 hr at ambient temperature. After addition of 1.5 uL Photinus luciferase detection reagent, the plates were incubated 10 min at ambient temperature and then read by a ViewLux (Perkin Elmer) to detect luminescence.", "values": [
      {"smiles": "O=C(O)Cn1cc(/C=c2/sc3nc4ccccc4n3c2=O)c2ccccc21", "Potency": "inconclusive [activator, partial curve]"},
      {"smiles": "COc1cc(NS(=O)(=O)c2ccc(NC(=S)NC(=O)c3sc4ccccc4c3Cl)cc2)nc(OC)n1", "Potency": "inconclusive [inhibitor, single point]"},
      {"smiles": "Cc1cc(N2C(=O)C(O)=C(C(=O)c3cc4ccccc4o3)C2c2ccc(Cl)cc2)no1", "note": "(stereo not drawn)", "Potency": "inconclusive [inhibitor, single point]"}
    ]}
  ]
}
